The supplement of paper PMC4967469
Lines with a small IC50 respond at low doses; fits outside the tested doses are given as limits. The AUC spans the tested range (256-fold, ending at the top dose) of the same fit: 1 means no effect, lower means more sensitive. For some assays here: A top dose marked as inferred comes from the curve model; the source does not state it.

Experiments:
Test in all cases: Viability of human cancer cell lines after 72 h of drug (GDSC screen)
QL-XI-92 = compound: C=CC(=O)Nc1cc(NC(=O)c2ccc(C)c(NC(=O)c3ccno3)c2)cc(C(F)(F)F)c1 [QL-XI-92]; settings: top dose 10.24 µM; top dose inferred
Protocol: (§1)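 Human cancer cell lines in 384-well plates, medium with 10% serum, drug for 72 h over a 256-fold dose range (nine 2-fold or five 4-fold steps up to the top dose). Adherent lines were fixed and stained with the nucleic acid dye Syto60, suspension lines read with resazurin; signal relative to control wells, capped at 0 and 100%. One two-parameter sigmoid per drug and line, fitted in a mixed model over all curves with the slope shared within a line.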

Vinorelbine = compound: CCC1=C[C@@H]2CN(C1)Cc1c([nH]c3ccccc13)[C@@](C(=O)OC)(c1cc3c(cc1OC)N(C)[C@H]1[C@@](O)(C(=O)OC)[C@H](OC(C)=O)[C@]4(CC)C=CCN5CC[C@]31[C@@H]54)C2 [Vinorelbine]; settings: top dose 0.064 µM; top dose inferred
Protocol: as §1

AG-014699 = compound: CNCc1ccc(-c2[nH]c3cc(F)cc4c3c2CCNC4=O)cc1 [AG-014699]; settings: top dose 5 µM; top dose inferred
Protocol: as §1

XL-184 = compound: COc1cc2nccc(Oc3ccc(NC(=O)C4(C(=O)Nc5ccc(F)cc5)CC4)cc3)c2cc1OC [XL-184]; settings: top dose 5.12 µM; top dose inferred
Protocol: as §1

WHI-P97 = compound: COc1cc2ncnc(Nc3cc(Br)c(O)c(Br)c3)c2cc1OC [WHI-P97]; settings: top dose 10.24 µM; top dose inferred
Protocol: as §1

Gefitinib = compound: COc1cc2ncnc(Nc3ccc(F)c(Cl)c3)c2cc1OCCCN1CCOCC1 [Gefitinib]; settings: top dose 0.5 µM
Protocol: as §1

Phenformin = compound: N=C(N)NC(=N)NCCc1ccccc1 [Phenformin]; settings: top dose 4000 µM; top dose inferred
Protocol: as §1

S-Trityl-L-cysteine = compound: N[C@@H](CSC(c1ccccc1)(c1ccccc1)c1ccccc1)C(=O)O [S-Trityl-L-cysteine]; settings: top dose 5.12 µM; top dose inferred
Protocol: as §1

EHT 1864 = compound: O=c1cc(CN2CCOCC2)occ1OCCCCCSc1ccnc2cc(C(F)(F)F)ccc12 [EHT 1864]; settings: top dose 10 µM; top dose inferred
Protocol: as §1

NU-7441 = compound: O=c1cc(N2CCOCC2)oc2c(-c3cccc4c3sc3ccccc34)cccc12 [NU-7441]; settings: top dose 2 µM; top dose inferred
Protocol: as §1

Cell Line	AUC (QL-XI-92)	IC50 (QL-XI-92) [µM]	AUC (Vinorelbine)	IC50 (Vinorelbine) [nM]	AUC (AG-014699)	IC50 (AG-014699) [µM]	AUC (XL-184)	IC50 (XL-184) [µM]	AUC (WHI-P97)	IC50 (WHI-P97) [µM]	AUC (Gefitinib)	IC50 (Gefitinib) [nM]	AUC (Phenformin)	IC50 (Phenformin) [µM]	AUC (S-Trityl-L-cysteine)	IC50 (S-Trityl-L-cysteine) [nM]	AUC (EHT 1864)	IC50 (EHT 1864) [µM]	AUC (NU-7441)	IC50 (NU-7441) [nM]
EW-16 (Ewing sarcoma, adherent)	0.965	> 10.2	0.515	4.4	0.948	> 5	0.918	> 5.12	0.875	> 10.2	0.937	> 500	0.798	2000	0.667	958	0.96	> 10	0.962	> 2000
EW-18 (Ewing sarcoma, suspension)	0.849	8.5	0.573	6.41	0.93	> 5	0.855	4.53	0.925	> 10.2	0.953	> 500	0.658	712	0.985	> 5120	0.974	> 10	0.945	> 2000
EoL-1-cell (haematopoietic neoplasm, suspension)	0.422	0.402	0.489	3.75	0.936	> 5	0.019	< 0.02	0.794	4.12	0.953	> 500	0.023	< 15.6	0.516	353	0.812	4.58	0.91	> 2000
Farage (B-cell lymphoma, suspension)	0.866	6.52	0.459	3.16	0.991	> 5	0.852	2.92	0.993	> 10.2	0.979	> 500	0.892	3230	0.699	1030	0.971	> 10	0.906	1860
GB-1 (glioma, adherent)	0.938	> 10.2	0.905	> 64	0.935	> 5	0.812	3.38	0.939	> 10.2	0.978	> 500	0.388	116	0.811	3320	0.977	> 10	0.917	> 2000
GCIY (stomach, adherent)	0.858	10.2	0.811	39.3	0.972	> 5	0.921	> 5.12	0.896	> 10.2	0.902	> 500	0.92	> 4000	0.772	2230	0.895	> 10	0.918	> 2000
GDM-1 (acute myeloid leukaemia, suspension)	0.62	1.34	0.78	25.1	0.958	> 5	0.315	0.0996	0.909	> 10.2	0.986	> 500	0.418	150	0.567	482	0.919	> 10	0.986	> 2000
GI-1 (glioma, adherent)	0.937	> 10.2	0.537	5.04	0.961	> 5	0.817	2.71	0.972	> 10.2	0.979	> 500	0.548	336	0.701	1140	0.977	> 10	0.975	> 2000
GOTO (neuroblastoma, adherent)	0.983	> 10.2	0.859	> 64	0.938	> 5	0.94	> 5.12	0.982	> 10.2	0.96	> 500	0.954	> 4000	0.899	> 5120	0.935	> 10	0.902	> 2000
H9 (lymphoid neoplasm, suspension)	0.892	8.27	0.696	12.6	0.992	> 5	0.954	> 5.12	0.947	> 10.2	0.992	> 500	0.986	> 4000	0.58	509	0.975	> 10	0.956	> 2000
HA7-RCC (kidney, adherent)	0.953	> 10.2	0.757	24.1	0.984	> 5	0.898	> 5.12	0.946	> 10.2	0.976	> 500	0.985	> 4000	0.84	4050	0.958	> 10	0.964	> 2000
HC-1 (hairy cell leukaemia, suspension)	0.809	5.1	0.528	4.76	0.975	> 5	0.922	> 5.12	0.923	> 10.2	0.987	> 500	0.525	291	0.628	710	0.976	> 10	0.968	> 2000
HCC1187 (breast, suspension)	0.955	> 10.2	0.577	6.42	0.942	> 5	0.96	> 5.12	0.971	> 10.2	0.988	> 500	0.794	1740	0.664	889	0.955	> 10	0.983	> 2000
